For 89 molecules, survival results are on record in PubChem BioAssay AID463173 (ICCB-Longwood Screening Facility, Harvard Medical School, 2010).

The campaign covered roughly 52,000 compounds. About 4,300 (8.3%) were called active. Cut-off read from the data, not from the text of the source: active = survival mostly below about 52% (no sharp cut-off); inactive = mostly above about 56%. The list shows a part of the results.

For the test, the system named is DeltatarO mutant. Kind of test: S. aureus survival, RN4220 and DeltatarO strains – OD600, teichoic acid synthesis inhibitors, primary screen (AID 463173). Particulars: S. aureus RN4220 wild type/DeltatarO growth, OD600, 18 h, stronger effect = lower value, screened at 18.75 µg/mL (by protocol).
Take `Cc1nc2cccnc2n1-c1cccc(C(=O)NCCc2ccc(Cl)cc2)c1`: the survival was inactive: 77%.

As for `c1cc2c(cc1CNC1CCCC1)OCO2`, the survival is inactive: 88%.

For `N#Cc1ccccc1NC(=O)C(=O)NCC(c1ccc2c(c1)OCO2)N1CCN(c2ccccc2)CC1` (centres undefined), the survival is inactive: 113%.

For the molecule `CCCCN(CC)C(=O)Cn1c(=O)n(-c2ccc(OCC)cc2)c(=O)c2c3c(sc21)CCCC3`, the survival was active: 89%.

Consider `O=C(Nc1ccc2nc(SCC(=O)N3CCCc4ccccc43)sc2c1)c1ccc(F)cc1`, for which the survival was inactive: 81%.

For `COc1cc(CN2CCc3nc(N4CCN(c5ccccc5F)CC4)ncc3C2)ccc1OC(C)C`, the survival is inactive: 118%.

For the molecule `CCC(=O)N1CCCc2cc(S(=O)(=O)Nc3ccc(C)c(C)c3)ccc21`, the survival is inactive: 68%.

As to `Cc1c(C(=O)Nc2ccc(Br)cc2F)sc2ncnc(N(C)C3CCCCC3)c12`, the survival was inactive: 102%.

For the molecule `Cc1ccc(S(=O)(=O)c2cn(Cc3ccc(F)cc3)c3cc(F)c(F)cc3c2=O)cc1`, the survival was inactive: 87%.

On to `CCOC(=O)c1cc2c(=O)n3ccccc3nc2n(CC(C)C)c1=NC(=O)c1cc2ccccc2o1`, for which the survival is inactive: 59%.

On to `CC(C)(C)N1Sc2ccccc2NC1=S`, for which the survival is inactive: 81%.

As for `CC(=O)c1cccc(NC(=O)CCS(=O)(=O)c2ccc(Br)s2)c1`, the survival was active: 43%.

For `CCOCCn1ccc2c(OCC(=O)Nc3ccc(OC(F)(F)F)cc3)cccc2c1=O`, the survival was inactive: 93%.

Turning to `O=C(CN1C(=O)CC(c2ccccc2)Sc2ccccc21)Nc1cccc(Cl)c1` (centres undefined), the survival was inactive: 79%.

As for `COc1ccc(/C=C/C(=O)Nc2nc3n(n2)C(c2ccccc2)C=C(c2ccccc2)N3)cc1` (centres undefined), the survival was inactive: 70%.

With `Cc1ccc(-c2cnc(NCc3ccc(C(F)(F)F)cc3)n2C)cc1`, the survival was active: -5%.

Turning to `CCN(C(=O)Cn1c(=O)oc2cc(Cl)ccc21)c1cccc(C(F)(F)F)c1`, the survival was inactive: 67%.

For `Cc1ccc(CCNC(=O)C2CCN(c3nnc(-n4cccc4CNc4ccc(C)cc4)s3)CC2)cc1`, the survival was inactive: 107%.

In the case of `Cc1ccnc(NS(=O)(=O)c2cc(-c3cc(C)no3)ccc2C)c1`, the survival was inactive: 99%.

With `Cc1nc2scc(C)n2c(=O)c1S(=O)(=O)Nc1ccc(N2CCOCC2)cc1`, the survival is inactive: 84%.

Consider `CCc1ccc(N(CC)C(=O)Cn2c(=O)oc3ccccc32)cc1`, for which the survival is inactive: 70%.

Regarding `Cc1nn(S(=O)(=O)c2ccc(F)cc2)c(C)c1S(=O)(=O)N1CCC(C)CC1`, the survival was active: -1%.

With `COc1ccc(NC(=O)C2CCCN(S(=O)(=O)c3ccc4c(c3)CCCC(=O)N4)C2)c(OC)c1` (centres undefined), the survival was inactive: 89%.

With `Cc1ccc(CN(C2CCCC2)S(=O)(=O)c2ccc(S(=O)(=O)N3CCCC(C)C3)cc2)o1` (centres undefined), the survival is inactive: 74%.

For `COc1ccc(OC)c(CNS(=O)(=O)c2c(C(=O)N3CCCCCC3)c(C)n(C)c2C)c1`, the survival was inactive: 124%.

On to `O=S(=O)(c1ccc(Br)cc1)c1nc(-c2cccs2)oc1SCc1ccccc1F`, for which the survival was inactive: 66%.

As for `COCCCNC(=O)c1cc(-c2cccnc2)nc2ccc(S(=O)(=O)N3CCC(C)CC3)cc12`, the survival is inactive: 113%.

As to `CN1C(=O)C2(c3ccccc31)N(c1cccc(F)c1)C(=O)CS2(=O)=O` (centres undefined), the survival was inactive: 120%.

With `C=CCNC(=S)N1CCC(C(=O)c2ccc(C)cc2)CC1`, the survival is inactive: 103%.

Consider `COc1ccc(Cl)cc1NC(=O)c1c(NCc2sccc2C)sc2c1CCCC2`, for which the survival was inactive: 71%.

For the molecule `Clc1ccccc1CNc1nc2ccccc2c2nc(-c3cccnc3)nn12`, the survival was inactive: 86%.

Take `COc1ccccc1NC(=O)N1CCN(c2cc(-c3ccccc3)nc3ncnn23)CC1`: the survival is inactive: 66%.

As to `C=CCc1ccccc1OCC(O)CN1CCN(c2ccccc2)CC1` (centres undefined), the survival is inactive: 83%.

`CCn1c(=O)n(CC)c2cc(N3CCCCC3)c(NC(=O)Nc3ccccc3C(F)(F)F)cc21`: the survival was inactive: 101%.

Consider `Cc1cc(C)n2nc(SCC(=O)Nc3cccc(C(F)(F)F)c3)nc2n1`, for which the survival is inactive: 57%.

In the case of `COc1ccccc1C(=O)Nc1ccc2c(c1)nc(CN1CCCCC1)n2C`, the survival is inactive: 66%.

As to `CCC(Oc1ccc(F)cc1)C(=O)Nc1nc(-c2ccc(F)cc2)ns1` (centres undefined), the survival was active: -2%.

On to `COc1ccc(C(CC(=O)NCc2ccccc2)N2Cc3ccccc3C2=O)cc1` (centres undefined), for which the survival is inactive: 106%.

With `CCOC(=O)c1ccc(NC(=O)CC2C(=O)N(c3cccc(OC)c3)C(=O)N2Cc2ccc(OC)cc2)cc1` (centres undefined), the survival was inactive: 57%.

With `CCc1ccccc1NC(=O)c1cnc2sc(N3CCOCC3)nn2c1=O`, the survival was inactive: 116%.

Regarding `COc1ccccc1N1CCN(C(=O)CCNS(=O)(=O)c2ccc3c(c2)CCN3C(=O)C2CC2)CC1`, the survival is inactive: 91%.

Take `Cc1ccc(NC(=O)c2cnc(SCC(=O)Nc3cc(C)on3)n(C)c2=O)cc1`: the survival was inactive: 88%.

With `COc1ccc(Cl)cc1NC(=O)CSC1=Nc2ccccc2C2=NC(CC(=O)NCc3ccc4c(c3)OCO4)C(=O)N12` (centres undefined), the survival was inactive: 87%.

For the molecule `Cc1ccc(CNC(=O)Cn2cc(S(=O)(=O)Cc3ccccc3F)c3ccccc32)cc1`, the survival is inactive: 112%.

As for `N#Cc1c(N)nc2c(c1-c1ccc3c(c1)OCO3)CCc1ccccc1-2`, the survival is inactive: 80%.

Take `COc1cc(NC(=O)CSC2=Nc3ccccc3N=C(c3ccc(F)cc3)C2)cc(OC)c1`: the survival is inactive: 94%.

For `COCCNC(=O)Cn1nc(C(F)(F)F)cc1C`, the survival is inactive: 85%.

Take `COc1ccc(CNC(=O)c2cnc3cc(C)ccn3c2=O)cc1`: the survival was inactive: 73%.

Consider `C#CCN1C(=O)C2C(C(=O)NC)C3C=CC2(O3)C1C(=O)NCc1ccc(OC)cc1` (centres undefined), for which the survival was inactive: 103%.

Turning to `Cc1cc(N2CCOCC2)cc(C)[n+]1[O-]`, the survival is inactive: 90%.

`Cc1ccccc1NC(=O)CSc1nc(=O)n(CCN2CCOCC2)c2c1CCC2`: the survival is inactive: 93%.

With `CN(Cc1ccccc1)C(=O)CSc1nc2ccccc2n1Cc1ccccc1F`, the survival was inactive: 86%.

With `Cc1sc2c(c1C)c(=O)n(-c1cccc(C(F)(F)F)c1)c(=O)n2Cc1ccc(F)cc1`, the survival is inactive: 57%.

For the molecule `COc1ccccc1Cc1nc2ccccc2nc1SCC(=O)Nc1cccc(Cl)c1C`, the survival is inactive: 79%.

For the molecule `COC(=O)c1ccc(NC(=O)CCc2c(C)nc3c(c2C)c(=O)n(C)c(=O)n3C)cc1`, the survival was inactive: 98%.

With `CCC(CC)NC1CCN(Cc2ccccc2)CC1`, the survival was inactive: 104%.

With `Cc1nn2c(C(F)(F)F)cc(-c3ccc(OC(C)C)cc3)nc2c1C#N`, the survival is inactive: 70%.

In the case of `CCOc1ccccc1CNC(=O)c1[nH]c2ccccc2c1Sc1ccccc1`, the survival was inactive: 72%.

Regarding `O=C(c1ccco1)N1CCN(c2nc3ccc(Cl)cc3s2)CC1`, the survival is inactive: 95%.

With `CCn1ccc2cc(S(=O)(=O)N3CCC(C(=O)NCCOC)CC3)ccc21`, the survival was inactive: 60%.

`CCN1CCN(CCCNC(=O)c2cc3c(s2)-c2c(C)cccc2OC3)CC1`: the survival was inactive: 102%.

Consider `O=S(=O)(c1ccc(-c2cc(C(F)(F)F)on2)s1)N1CCN(c2cccc(Cl)c2)CC1`, for which the survival was inactive: 117%.

For `NC(=S)N(c1ccccc1)c1ccccc1`, the survival was inactive: 98%.

With `Cc1ccc(C)c(N2CCN(C(=O)c3cccn3-c3nnc(N4CCCCC4)s3)CC2)c1`, the survival is inactive: 57%.

Consider `COc1ccccc1CCNC(=O)CCc1c(C)c2cc3c(C)coc3cc2oc1=O`, for which the survival was inactive: 63%.

For `COc1cccc(CNC(=O)c2cc3c(=O)n(C)c4ccccc4c3n2C)c1`, the survival is inactive: 83%.

Consider `CC1(C)CC2CC(C)(CN2C(=O)CCCN2C(=O)c3ccccc3C2=O)C1` (centres undefined), for which the survival was inactive: 70%.

For the molecule `COCCn1c(C)cc(O)c(C(c2ccccc2OC)N2CCCCC2)c1=O` (centres undefined), the survival was inactive: 81%.

In the case of `CC(C)(C)NC(=O)C1CC(=O)OC12CCCCC2` (centres undefined), the survival is inactive: 85%.

Turning to `Cc1ccc(NC(=O)Cn2c(=O)c(C(F)(F)F)nc3ccccc32)c(C)c1`, the survival was inactive: 81%.

On to `Cc1ccc(N2CCN(C(=O)C3CCC(CNS(=O)(=O)c4ccc(Br)s4)CC3)CC2C)cc1` (centres undefined), for which the survival is inactive: 71%.

In the case of `COc1ccc2cc(CNc3ccccc3)c(=O)n(CC(=O)Nc3ccc(C)cc3C)c2c1`, the survival is active: 0%.

Turning to `Cc1ccc2nc(SCc3nc(-c4ccccc4C)no3)[nH]c2c1`, the survival was active: 25%.

Regarding `O=C(NN1C(=O)C2C3c4ccccc4C(c4ccccc43)C2C1=O)c1cccnc1` (centres undefined), the survival is inactive: 71%.

On to `Cc1ccc2c(CC(=O)Nc3c(C(=O)Nc4cccc(Cl)c4)oc4ccccc34)coc2c1C`, for which the survival was inactive: 62%.

Turning to `COc1cc(C)nc(N2CCCC(C(=O)Nc3ccccc3Br)C2)n1` (centres undefined), the survival is inactive: 91%.

Regarding `CCc1cnc2c(c1SCC(=O)NCc1ccccc1)c(=O)n(C)c(=O)n2C`, the survival was inactive: 97%.

Regarding `CC(C)(C)c1ccc(C(=O)N2CC(=O)Nc3ccc(F)cc3C2c2ccc(F)cc2)cc1` (centres undefined), the survival was inactive: 65%.

For `Cc1cc(C)c2oc(-c3cccc(NC(=O)c4cc5ccccc5o4)c3)nc2c1`, the survival was active: 36%.

Take `COc1cc(CCC(=O)NCc2ccc3c(c2)CCN3C(=O)c2cccc(C)c2)cc(OC)c1OC`: the survival is inactive: 118%.

Turning to `COc1cc(C2c3c(oc4ccccc4c3=O)C(=O)N2Cc2ccccc2Cl)ccc1O` (centres undefined), the survival was inactive: 79%.

For `Cc1ccc(Nc2cc(C(=O)NC3CCCC3)c3ccccc3n2)c(C)c1`, the survival was inactive: 77%.

Turning to `CN(Cc1ccccc1)C(=O)Cn1ncc2c3ccccc3n(Cc3cccc(Cl)c3)c2c1=O`, the survival was inactive: 90%.

For the molecule `CCc1cccc(OCC(=O)Nc2c[nH]c(=O)[nH]c2=O)c1`, the survival is inactive: 100%.

On to `COc1ccc(NC(=O)CSC2=Nc3ccccc3C3=NC(Cc4ccccc4)C(=O)N23)cc1Cl` (centres undefined), for which the survival is inactive: 78%.

As for `Cc1ccc(Cl)cc1Nc1sc(C(=O)c2ccccc2)c(N)c1S(=O)(=O)c1ccccc1`, the survival is inactive: 75%.

As to `O=S(=O)(Nc1cccnc1)c1ccc(C2CCCCC2)cc1`, the survival is inactive: 79%.

In the case of `Cc1ccc(CCNC(=O)c2c(C)oc3ncnc(N4CCOCC4)c23)cc1`, the survival was inactive: 126%.

On to `Fc1cccc(NCc2cccn2-c2nnc(N3CCOCC3)s2)c1`, for which the survival was inactive: 80%.
